Structures are written as SMILES. “And” between values parts separate entries of the source, which are not always exact repeats. Equal values may be shown once. Where a name gives a salt, the structure may show the parent alone. The full ranking holds about 2,800 compounds; the median of “cell viability relative to vehicle” is about 0.98, and the lowest 2% start at about 0.45. The list shows a part of the results.

This assay concerns NCI-H2228 alectinib-DTP. Kind of assay: cell viability relative to vehicle (fraction of vehicle); NCI-H2228 is an ALK-positive lung cancer line and DTP means drug-tolerant persister; higher = less growth inhibition. The settings on record: 100 nM; treatment time 6 days. The gist of the method:
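Each value is viability relative to vehicle-treated cells, measured as ATP with the CellTiter-Glo 3D Cell Viability Assay. Parental NCI-H2228 cells and drug-tolerant persisters (1000 nM targeted drug, 13 days) in 384-well plates received the 3114-agent TargetMol anti-cancer compound library at 100 nM, or DMSO, and were read 6 days later.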
The compound `CC(Cc1cccc(C(F)(F)F)c1)NCCOC(=O)c1ccccc1` (stereo not given) [Benfluorex hydrochloride] showed a cell viability of 0.815.
The value for `O=C(O)[C@]1(Cc2cccc(Nc3nccs3)n2)CC[C@@H](Oc2cccc(Cl)c2F)CC1` was 0.98.
The value for `CC(=O)Nc1ccc(C(=O)Nc2ccccc2N)cc1` was 0.923.
The value for `COc1cccc2c1c(O)c(C(=O)N(C)c1ccc(C(F)(F)F)cc1)c(=O)n2C` [Tasquinimod] was 1.03; that for `C#Cc1cccc(Nc2ncnc3cc(OC)c(OCCCCCCC(=O)NO)cc23)c1` was 0.97; that for `O=S(=O)(c1ccc2c(c1)C(=NO)c1cc(S(=O)(=O)N3CCCCC3)ccc1-2)N1CCCCC1` was 1.06.
Regarding `CC(=O)S[C@@H]1CC2=CC(=O)CC[C@]2(C)[C@H]2CC[C@@]3(C)[C@@H](CC[C@@]34CCC(=O)O4)[C@H]12` [Abbolactone], the cell viability was 1.05.
The value for `CN1CCN(C(=O)/C=C/c2ccc([N+](=O)[O-])o2)CC1` was 1.04; that for `CN(CC(=O)N(Cc1ccc(C2CCCCC2)cc1)c1ccc(C(=O)O)c(O)c1)S(=O)(=O)c1c(F)c(F)c(F)c(F)c1F` was 0.885; that for `Cc1nccnc1N1CCCCC1` [Modaline sulfate] was 1.07.
The value for `Nc1nc(Nc2ccc3c(c2)CC[C@@H](N2CCCC2)CC3)nn1-c1cc2c(nn1)-c1ccccc1CCC2` [Bemcentinib] was 0.901; that for `CC(C)(O)[C@H]1CC[C@@](C)([C@H]2[C@@H](O)C[C@@]3(C)[C@@H]4C[C@H](O[C@@H]5O[C@H](CO)[C@@H](O)[C@H](O)[C@H]5O)[C@H]5C(C)(C)[C@@H](O[C@@H]6OC[C@@H](O)[C@H](O)[C@H]6O)CC[C@@]56C[C@@]46CC[C@]23C)O1` [Astragaloside A] was 0.983.
Compound `O=C(Nc1cccc(C(F)(F)F)c1)c1cccc2cc(Oc3cc(CO)ncn3)ccc12` came in with a cell viability of 0.987.
The compound `O=C(Nc1ccc(O)c(C(=O)O)c1)c1cccc(NC(=O)c2ccco2)c1` came in with a cell viability of 1.18.
The value for `N#Cc1ccc(C(c2ccc(C#N)cc2)n2cncn2)cc1` [Letrozole] was 0.854.
The value for `Clc1ccc(CCC(Cn2ccnc2)Sc2c(Cl)cccc2Cl)cc1` (stereo not given) [Butoconazole nitrate] was 1.07; that for `C[C@@]1(C(=O)Nc2ccc(F)nc2)CCCN1c1nc(Nc2cc(C3CC3)n[nH]2)c2cccn2n1` was 0.601.
The figure for `CCCCCCCCCCCCCCCCCCOCC(O)CO` (stereo not given) [Batyl alcohol] is 1.05.
In turn, `C[N+]1(C)CCC(OC(=O)C(O)(c2ccccc2)C2CCCC2)C1` (stereo not given) [Glycopyrrolate] returned a cell viability of 0.8.
Turning to `O=C(O)c1ccc(S(=O)(=O)NC2CCCCC2)cc1`, the cell viability is 0.943 and 1.05.
`CCOC(=O)[C@@H](N)Cc1ccc(-c2cc(O[C@H](c3ccc(Cl)cc3-n3ccc(C)n3)C(F)(F)F)nc(N)n2)cc1` [Telotristat Etiprate] showed a cell viability of 0.959.
The value for `CN1CCN(C2=Nc3ccccc3Oc3ccc(Cl)cc32)CC1` [Loxapine succinate salt] was 0.902.
The figure for `CC1(C)CC[C@]2(C(=O)O[C@@H]3O[C@H](CO)[C@@H](O)[C@H](O)[C@H]3O)CC[C@]3(C)C(=CC[C@@H]4[C@@]5(C)CC[C@H](O[C@@H]6O[C@H](C(=O)O)[C@@H](O)[C@H](O)[C@H]6O)C(C)(C)[C@@H]5CC[C@]43C)[C@@H]2C1` [Chikusetsusaponin IVa] is 1.1.
The figure for `CC(C)CC(N)=O` [Isovaleramide] is 1.12; for `COc1c2occc2cc2ccc(=O)oc12` [8-Methoxypsoralen] it is 0.987; for `COc1ccc2c(OCc3nnc4ccc(-c5ccccc5)nn34)ccnc2c1` it is 1.05.
Compound `Cn1c(=O)c2c(ncn2CC(=O)Nc2ccc(-c3ccccc3)nn2)n(C)c1=O` gave a cell viability of 1.15.
The value for `N=C(NCCCCCCNC(=N)NC(=N)Nc1ccc(Cl)cc1)NC(=N)Nc1ccc(Cl)cc1` [Chlorhexidine hydrochloride] was 1.02; that for `N=C(NCCCCCCNC(=N)NC(=N)Nc1ccc(Cl)cc1)NC(=N)Nc1ccc(Cl)cc1` [Chlorhexidine] was 1.17; that for `c1ccc(NCc2ccc(CNc3ccccn3)cc2)nc1` was 0.801.
The figure for `CN1CCN(Cc2ccc(Nc3ncc(Cl)c(Nc4ccccc4S(=O)(=O)N(C)C)n3)cc2)CC1` is 0.122.
The figure for `COC(=O)c1ccc2c(c1)nc(NC(=O)c1ccccc1)n2CCCc1ccccc1` is 1.07; for `O=C(O)Cc1ccc(-c2ccccc2)cc1` [4-Biphenylacetic acid] it is 0.987; for `COc1cc(N2CCC(N3CCN(C)CC3)CC2)ccc1Nc1ncc(Cl)c(-c2c[nH]c3ccccc23)n1` it is 0.893.
For `O=C(NC[C@H]1CN(c2ccc(N3CCOCC3=O)cc2)C(=O)O1)c1ccc(Cl)s1` [Rivaroxaban], the cell viability was 1.05.
The figure for `COc1ccc(-c2ccc3c(N4CCOC[C@@H]4C)nc(N4CCOC[C@@H]4C)nc3n2)cc1CO` is 0.377; for `O=C1C[C@@H](c2ccccc2)Oc2cc(O)cc(O)c21` [Pinocembrin] it is 0.964.
The value for `COc1c(C)c(C(=O)c2ccc(N)c(C(=O)O)c2)n2ccccc12` was 1.01; that for `COc1nccc(-c2c(-c3ccc(F)cc3)ncn2C2CCC(O)CC2)n1` (stereo not given) was 0.882.
The figure for `CN[C@@H](C)C(=O)N[C@H](C(=O)N1CCC[C@H]1c1nc(C(=O)c2ccc(F)cc2)cs1)C1CCCCC1` is 1.09; for `CCCc1cc(C)[nH]c(=O)c1CNC(=O)c1cc(-c2ccc(N3CCN(C(C)C)CC3)nc2)cc2c1cnn2C(C)C` it is 1.13; for `CCN(CC)CCOC(=O)C1(C2CCCCC2)CCCCC1` [Dicyclomine hydrochloride] it is 1.07.
`O=c1cc(-c2ccccc2)oc2c(O)c(O)ccc12` [7,8-Dihydroxyflavone] yielded a cell viability of 0.885.
`Oc1cc(O)c2c(c1)O[C@H](c1ccc(O)c(O)c1)[C@@H](O)C2` [Cianidanol] registered a cell viability of 0.938.
The figure for `NC(=O)c1ccc(N(C(N)=O)c2c(F)cccc2F)nc1-c1ccc(F)cc1F` is 0.981; for `N=C1NC(=O)/C(=C/c2ccc(O)cc2)S1` [Mirin] it is 1.05; for `Nc1c(CC(=O)O)cccc1C(=O)c1ccccc1` [Amfenac Sodium Monohydrate] it is 0.938.
The value for `C=C1[C@H](OC(=O)/C=C(\C)CC)C[C@@H](C(C)C)[C@@H]2[C@@H]([C@@H](C)OC(C)=O)C(=O)C[C@@H]12` [Tussilagone] was 1.07; that for `COc1cc(N2CCOCC2)ccc1Nc1ncc(Cl)c(Nc2ccccc2NS(C)(=O)=O)n1` was 0.914; that for `COc1ccc([C@@H]2CC(=O)c3c(O)cc(O)cc3O2)cc1O` [Hesperetin] was 1.01.
The value for `C[C@@H]1C(=O)O[C@H]2C[C@@]34[C@H]5C[C@@H](C(C)(C)C)[C@]36[C@@H](OC(=O)[C@@H]6O)O[C@@]4(C(=O)O5)[C@]21O` [Ginkgolide A] was 0.973; that for `CC1=C(C(=O)OC2CCCCC2)C(c2ccc([N+](=O)[O-])cc2)C2=C(CC(C)(C)CC2=O)N1` (stereo not given) was 0.995; that for `CC(c1cc2ccccc2s1)N(O)C(N)=O` (stereo not given) [Zileuton] was 1.1.
Regarding `CC(=O)Oc1cc(C(C)C)c(OCCN(C)C)cc1C` [Moxisylyte hydrochloride], the cell viability is 1.19.
Take `O=C(O)c1cc(O)c2c(c1)[C@H]([C@H]1c3cc(C(=O)O)cc(O)c3C(=O)c3c(O[C@@H]4O[C@H](CO)[C@@H](O)[C@H](O)[C@H]4O)cccc31)c1cccc(O[C@@H]3O[C@H](CO)[C@@H](O)[C@H](O)[C@H]3O)c1C2=O` [Sennoside A]: the cell viability was found to be 1.01.
The figure for `Nc1ncnc2c1ncn2[C@@H]1O[C@H](COP(=O)(O)O)[C@@H](O)[C@H]1O` [Adenosine 5'-monophosphate] is 0.937; for `NC(=O)c1ncn([C@@H]2O[C@H](CO)[C@@H](O)[C@H]2O)c1N` [AICAR (Acadesine)] it is 0.895; for `CC1=C(/C=C/C(C)=C/C=C/C(C)=C/C(=O)Nc2ccc(O)cc2)C(C)(C)CCC1` [Fenretinide] it is 0.792.
`C/C(=N\NC(=S)N1CCC1)c1ccccn1` registered a cell viability of 0.362.
Compound `O=c1[nH]c(=O)n([C@H]2C[C@H](O)[C@@H](CO)O2)cc1F` [Floxuridine] returned a cell viability of 0.798.
The figure for `O=C1c2cccc(O)c2C(=O)c2c(O)cc(CO)cc21` [Aloe-emodin] is 0.821.
The figure for `CN(C)CCC=C1c2ccccc2C=Cc2ccccc21` [Cyclobenzaprine hydrochloride] is 1.04; for `CN(C)CCc1c[nH]c2ccc(C[C@H]3COC(=O)N3)cc12` [Zolmitriptan] it is 1.07; for `O=C(NC1CCOCC1)c1ccc(-c2cc(-c3c[nH]nc3-c3ccccn3)ccn2)cc1` it is 0.974.
The value for `O=C1C(=O)N(Cc2ccc(Cl)c(Cl)c2)c2ccccc21` [Apoptosis Activator 2] was 1.05.
In turn, `NS(=O)(=O)c1cc2c(cc1Cl)NCNS2(=O)=O` [Hydrochlorothiazide] came in with a cell viability of 0.962.
As to `C[N+]1(C)CCC(=C(c2ccccc2)c2ccccc2)CC1` [Diphemanil mesylate], the cell viability stood at 0.955.
As for `COc1cc(/C=C/C(=O)O)ccc1O` [Sodium ferulic], the cell viability is 1.21.
In turn, `COc1cc(/C=C/C(=O)O)ccc1O` [Ferulic Acid] displayed a cell viability of 1.25.
Compound `CC(C)OC(=O)CCC/C=C\C[C@@H]1[C@@H](CC[C@@H](O)CCc2ccccc2)[C@H](O)C[C@@H]1O` [Latanoprost] gave a cell viability of 1.08.
The value for `CC(C)(F)C[C@H](N[C@@H](c1ccc(-c2ccc(S(C)(=O)=O)cc2)cc1)C(F)(F)F)C(=O)NC1(C#N)CC1` [Odanacatib] was 0.948; that for `COc1c(O[C@@H]2O[C@H](C(=O)O)[C@@H](O)[C@H](O)[C@H]2O)cc(O)c2c(=O)cc(-c3ccccc3)oc12` [Wogonoside] was 0.92; that for `C[C@@H]1COCCN1c1cc(C2([S@](C)(=N)=O)CC2)nc(-c2cc[nH]c3nccc2-3)n1` was 1.04.
Regarding `COc1cc(C)c(/C=C/C(C)=C/C=C/C(C)=C/C(=O)O)c(C)c1C` [Acitretin], the cell viability turned out to be 0.798.
The value for `C[n+]1cccc(C(=O)[O-])c1` [Trigonelline hydrochloride] was 0.954.

The values are drawn from the supplement of paper PMC10600219.
